Some of the results follow.
T1: UNK ZnF1-3 (human, UniProt Q9C0B0 31-174)
T1 sequence: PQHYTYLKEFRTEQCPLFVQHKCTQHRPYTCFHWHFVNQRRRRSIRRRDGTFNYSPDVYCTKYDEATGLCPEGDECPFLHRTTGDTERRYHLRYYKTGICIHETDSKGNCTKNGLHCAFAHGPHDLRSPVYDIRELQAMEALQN

B1: chr11:100452861:100452862:-_ENSMUSG00000014195_ENSMUST00000014339|mus_mus|motif|central (ssRNA)
RNA: GGGAGUUCUACAGUCCGACGAUCCAUUCGUAAAAUGUCACUGGCCACAAACUGUGCUUCUGGGUAUCGACCAAGCAUUGCGGAACAUUCUGCUUUGAGAAUUUUGAAUCGAUGGCAGGCAGGGGCAAAUUCUAGGGCACGGUCCAACAGAGGAUUGAGCAUCA
B2: chr5:37680062:37680063:+_ENSMUSG00000029121_ENSMUST00000031004|mus_hu|mus_mus_mus_hu_False|18_48 (ssRNA)
RNA: GGGAGUUCUACAGUCCGACGAUCUUUGGGUGUAGCUGGUACCUCGUACACAGGACCGUCAUACAUGCCCCUGGAAACCCCUUGCAACCCGAAAACCUUAUUCCUGAUUUUGACGCGCUGGUAGAGAUGCUCCGGGAACGCCUUCAACAGAGGAUUGAGCAUCA
B3: chrX:34421674:34421675:+_ENSMUSG00000016308_ENSMUST00000016452|mus_hu|motif|central (ssRNA)
RNA: GGGAGUUCUACAGUCCGACGAUCGAACAUCUUAGAGACAAAUCUAACUGUAGGUGGUUUAUUUGGAUAUUCUUCAGUGAAUUCGGUUGUAAGUUUAAAUGUUCCAUCCUCAAACGGGGUCCCUUCAGGCCCGAAAAUGACCGCCAACAGAGGAUUGAGCAUCA
B4: chr2:5814250:5814251:-_ENSMUSG00000025816_ENSMUST00000102981|mus_hu|mus_mus_mus_hu_True|28_38 (ssRNA)
RNA: GGGAGUUCUACAGUCCGACGAUCUUCCUUUCCGGUUUCUGAAUUUCUGGUAGAACUGCACAGAAUGGUUUGAUAACUUCUAAAAAUUUGAUGCCCAUGGCGGCGGCUCAGCACACCCAGGGGGAAACCGCGGCCUCGGCGCUGCAACAGAGGAUUGAGCAUCA
B5: chr6:90346886:90346887:-_ENSG00000083099_ENST00000520318|hu_hu|FALSE|FALSE (ssRNA)
RNA: GGGAGUUCUACAGUCCGACGAUCCAGGGUAUGUUUUUCAGUGUUAAGGCAACUGUUCUGAUGUGUUUUUCCUUUGCUCUCUAUCACCAAAUACUGUACAUAUAAAUAGUAAGACUGGGCUUUGUGUUGUCCAUUGUUAAUCCUCAACAGAGGAUUGAGCAUCA
B6: chr1:109605286:109605287:-_ENSG00000197780_ENST00000461096|hu_mus|hu_hu_hu_mus_True|28_88 (ssRNA)
RNA: GGGAGUUCUACAGUCCGACGAUCAAGUUUCAGAGUAACAUUCAGUAUACUUAAAUCAUGCAAUUAUCCUUAUUAUAAGCUAAGCAGAAUAAUAAUUUAAUACCGUAAGUAAAUACAACACAAAGCCUGAACCGCGAAAAUGGUCAACAGAGGAUUGAGCAUCA

biological target: T1, UNK ZnF1-3; assay: nsRBNS (natural sequence RNA bind-n-seq); RBNS binding buffer (assumed for nsRBNS): 25 mM Tris pH 7.5, 150 mM KCl, 3 mM MgCl2, 0.01% Triton X-100, 500 ug/ml BSA, 20 U/ml SUPERase-In, 4 C; UNK is unkempt and MSI1 is Musashi-1; names of the RNAs are library labels; protein concentration not given here; high values mean tight binding

Point of comparison: B5, binding signal 0.606 enrichment R. Against it:
- B1 — higher, 1.45 enrichment R
- B2 — higher, 0.821 enrichment R
- B3 — higher, 0.861 enrichment R
- B4 — higher, 0.936 enrichment R
- B6 — higher, 0.775 enrichment R

Source: paper PMC12136788
